# The shares of active, inactive and inconclusive entries below differ from those in the screen. Potencies of inconclusive entries are left out as doubtful fits. The source made the active and inactive calls. The call rests on the fitted dose curve; in most records, active means well fitted inhibition curve with a large enough effect; inconclusive means small, poorly fitted or top-dose-only effect; inactive means flat fitted curve, though single readings scatter.
# System: Trypanosoma brucei pyruvate kinase (TbPYK)
# Test: qHTS of Trypanosoma Brucei Inhibitors: Orthogonal Assay for Cherry-picked Compounds; further: nearly all actives have a fitted effect of over 75% in size
# Settings: recombinant TbPYK, ADP-Glo luminescence, 60 min; activity change, negative = inhibition: at 76.9 µM (top of the series)
# Method in brief: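 Enzyme plus substrate was dispensed, compound added by pin tool, then ADP (130 uM final) started the reaction. After 60 min at room temperature, ADP-Glo reagents I and II were added sequentially and luminescence read.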
# On the % scale 0 is the no-effect control and ±100 the full control effect; potency means the concentration at half of the fitted maximal effect; tags describe the fitted curve by direction and shape.
SMILES,"activity change, negative = inhibition",Potency
CC(C)Sc1nc(N2CCOCC2)c2c(c1C#N)CC(C)(C)N(C)C2,inactive: -6.48%,–
CCN(CC)c1ccc(N)cc1S(=O)(=O)Nc1ccccc1OC,–,active: 11.2 µM
O=C(CSc1nnc(-c2ccco2)n1CC1CCCO1)c1ccc(F)cc1 (stereo not drawn),–,active: 39.8 µM
COc1ccc(N(CC(=O)NCCSC(C)(C)C)S(C)(=O)=O)c(OC)c1,–,"inconclusive [inhibitor, partial curve]"
Cn1c(SCC(=O)NC2CCCCC2)nnc1-c1cccc(N)c1,–,"inconclusive [inhibitor, partial curve]"
O=C(Nc1ccc(C(=O)N2CCCC2)cc1)c1ccccc1,inactive: 8.35%,–
O=C(NCc1ccccc1Cl)C(=O)NCC1OCCN1S(=O)(=O)c1ccc(F)cc1 (stereo not drawn),–,active: 31.6 µM
NC(=O)CSc1nnc(-c2cccc(S(=O)(=O)N3CCOCC3)c2)n1C1CCCCCC1,inactive: -19.3%,–
CC1=NOC(=O)/C1=C\c1ccc(-c2ccccc2Br)o1,inactive: -29.3%,–
CCOC(=O)C(C)(C)N(Cc1ccccc1C)S(=O)(=O)c1ccc(Cl)c([N+](=O)[O-])c1,inactive: 2.08%,–
COc1ccccc1-n1c(=S)[nH]c2c(sc(=S)n2-c2ccccc2)c1=O,–,active: 17.8 µM
Cc1ccc(-n2c(SCC(=O)Nc3ccc4c(c3)OCO4)nnc2-c2cccs2)cc1,–,active: 4.47 µM
CCOC(=O)C1(C)C(C(=O)OC)=C(c2ccc(OC)cc2)c2ccccc2N1C(=O)OC (stereo not drawn),–,"inconclusive [inhibitor, single point]"
Nc1ccc2c(c1)C(=O)C(=O)c1ccccc1-2,–,"inconclusive [inhibitor, partial curve]"
O=C1N=c2ccccc2=C1c1sc(=O)[nH]c1O,–,"inconclusive [inhibitor, single point]"
O=C1/C(=C\c2ccncc2)CCc2ccccc21,inactive: 7.29%,–
N#Cc1c(NC(=O)CCC(=O)O)sc2c1CCCCC2,–,"inconclusive [inhibitor, partial curve]"
NS(=O)(=O)c1ccc(N=Nc2c[nH]c(=O)c(O)c2)cc1,inactive: -11.6%,–
Cc1ccc(-c2cc(C(=O)N3CCOCC3)c3ccccc3n2)o1,–,"inconclusive [inhibitor, single point]"

SMILES,"activity change, negative = inhibition",Potency
N/C(=N/OC(=O)c1ccccc1Cl)c1nonc1N,inactive: 6.06%,–
CCN(CC)c1ccc(C(=C2C=CC(=[N+](CC)CC)C=C2)c2ccc(S(=O)(=O)O)cc2S(=O)(=O)[O-])cc1,inactive: 2.33%,–
CC1(C)Cc2c(c(N3CCOCC3)nc3sc(C(=O)N4CCCCC4)c(N)c23)CO1,–,active: 2.51 µM
O=C(O)CC(C(=O)O)N1C(=O)/C(=C/C=C/c2ccco2)SC1=S (stereo not drawn),–,"inconclusive [inhibitor, partial curve]"
Cc1nc(SCC(=O)c2cccc([N+](=O)[O-])c2)n[nH]1,–,"inconclusive [inhibitor, partial curve]"
CCOC(=O)c1ccc(NC(=O)c2sc3nc(N4CCOCC4)c4c(c3c2N)CCCC4)cc1,–,"inconclusive [inhibitor, partial curve]"
O=C(NCC1CCCO1)c1sc(=S)n2c1[nH]c(=O)c1ccc(C(=O)N3CCCCC3)cc12 (stereo not drawn),–,"inconclusive [inhibitor, single point]"
C[C@@H]1O[C@@H](O[C@@H]2[C@@H](O)[C@H](OCCc3ccc(O)c(O)c3)O[C@H](CO)[C@H]2OC(=O)/C=C/c2ccc(O)c(O)c2)[C@H](O)[C@H](O)[C@H]1O,–,"inconclusive [inhibitor, partial curve]"
COC(=O)c1ccc2nc(-c3ccco3)c(Cc3ccccc3C(F)(F)F)n2c1,–,"inconclusive [inhibitor, partial curve]"
CCn1c(C(=O)NCc2cccnc2)cc2sc(Cl)cc21,–,"inconclusive [inhibitor, partial curve]"
N#CC1=C2SCN(Cc3ccccc3)CN2C(=O)CC1c1ccc2c(c1)OCO2 (stereo not drawn),–,"inconclusive [inhibitor, partial curve]"
COc1ccc(CCN2C(=O)C=CC2=O)cc1OC,–,active: 5.62 µM
O=C(O)c1ccc(NS(=O)(=O)c2ccc3c(c2)C2C=CCC2C(c2ccccc2F)N3)cc1 (stereo not drawn),–,"inconclusive [inhibitor, partial curve]"
O=C1C=C(NCCc2cc(Br)c(O)c(Br)c2)C(=O)c2ncccc21,–,active: 15.8 µM
COC(=O)COc1ccc(C2Nc3c(Cl)ccc(C(=O)O)c3C3C=CCC32)cc1 (stereo not drawn),–,"inconclusive [inhibitor, partial curve]"
CCN1/C(=C2\C(=O)N(C)C(=S)N2C)C=Cc2ccccc21,–,"inconclusive [inhibitor, partial curve]"
C=CCOc1ccc(/C=C2/C(=O)ON=C2C)cc1OC,–,"inconclusive [inhibitor, partial curve]"
Cc1ccc2c(c1)sc[n+]2Cc1ccccc1,–,"inconclusive [inhibitor, partial curve]"
Cc1ccc(/C=C/C(=O)Nc2cccc3ncccc23)o1,–,"inconclusive [inhibitor, single point]"

# Reference: PubChem BioAssay AID720584 (National Center for Advancing Translational Sciences (NCATS), 2013)
